Experimental data published in PubChem BioAssay AID485344 (National Center for Advancing Translational Sciences (NCATS), 2010).
About 6,900 (2%) of roughly 340,000 compounds were called active. No stated cut-off is given here; in the data, active means inhibition above about 30%; inactive means below that, where a call was filed. The list shows a part of the results, in another mix than the full data. Where no call is shown, the source filed none.

These compounds were tested against D(2) dopamine receptor (Homo sapiens) (UniProt P14416) (assay: HTS Assay for Allosteric Antagonists of the Human D2 Dopamine Receptor: Primary Screen for Antagonists). Details: HEK293 TREx D2 cells, calcium flux, dopamine EC80; at 10 µM; stronger effect = higher value.
In short: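 Read-out: kinetic calcium fluorescence (1 cycle/s) in inducible HEK293 T-REx D2 cells after an EC80 dopamine addition that followed 180 s compound preincubation. Loss of the dopamine response indicates antagonism.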
Further: 0% is about no effect.

UniProt P14416, sequence (P14416 whole entry, looked up): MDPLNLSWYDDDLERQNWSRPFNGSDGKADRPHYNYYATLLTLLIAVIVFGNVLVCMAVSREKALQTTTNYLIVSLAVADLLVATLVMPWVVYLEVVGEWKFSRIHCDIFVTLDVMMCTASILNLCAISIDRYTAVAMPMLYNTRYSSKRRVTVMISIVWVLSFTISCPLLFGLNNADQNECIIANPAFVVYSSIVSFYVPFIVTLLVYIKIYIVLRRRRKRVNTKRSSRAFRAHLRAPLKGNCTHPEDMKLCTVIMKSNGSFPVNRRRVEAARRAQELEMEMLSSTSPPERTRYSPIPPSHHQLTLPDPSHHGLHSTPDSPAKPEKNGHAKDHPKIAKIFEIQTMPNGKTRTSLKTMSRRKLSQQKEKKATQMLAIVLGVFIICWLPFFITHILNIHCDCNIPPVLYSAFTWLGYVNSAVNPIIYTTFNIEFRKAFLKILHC

SMILES	inhibition
CCc1nc2ccc(C(=O)N3CCN(c4ccc(Cl)cc4)CC3)cc2nc1CC	27.9%
Cc1cc(C(F)F)n2nc(C(=O)Nc3ccc(F)c(Cl)c3)nc2n1	21.8%
COc1cccc(NC(=O)C2C3C=CC(O3)C2C(=O)NCc2cccnc2)c1 (configuration not stated)	active: 44.1%
CCc1ccc(-c2nn(CC(=O)NC3CCCCC3)c3c2cnc2ccc(OC)cc23)cc1	16.6%
Cc1ccc(Cl)cc1NC(=O)C(=O)NCCc1sc(-c2ccc(F)cc2)nc1C	-6.42%
COc1ccc(NC(=O)CSC2=Nc3ccccc3C3=NC(CC(=O)NCc4ccc(F)cc4)C(=O)N23)cc1 (configuration not stated)	2.36%
COc1cccc(NC(=O)/C(C#N)=C\c2cn(Cc3ccc(Cl)cc3)c3ccccc23)c1	7.42%
CCCCCn1c(=O)[nH]c2cc(C(=O)Nc3ccc(F)cc3)ccc2c1=O	-19.3%
CCOC(=O)C1CCN(S(=O)(=O)c2cc(-c3cc(C)no3)ccc2C)CC1	-2.83%
Cc1cccc(NC(=O)CSc2nnc(CNC(=O)c3c(F)cccc3Cl)o2)c1C	-5.54%
CC(C)c1nn2c(=O)cc(COC(=O)c3ccc(NC(=O)CCc4ccccc4)cc3)nc2s1	-6.48%
CC1CCN(CCNC(=O)c2ccc(Cn3c(SCc4ccccc4)nc4cccnc43)cc2)CC1	18.3%
CC(=O)c1ccc(NC(=O)NCCc2c[nH]c3ccccc23)cc1	18.3%
CCc1cccc(NC(=O)CSc2ncc3c(n2)-c2ccccc2N(Cc2ccccc2C)S3(=O)=O)c1	-0.779%
O=C(COc1ccc(F)cc1)Nc1ccc2nc(SCc3ccccc3)sc2c1	-1.28%
CCOc1ccc(-c2cc(C(=O)NCc3ccccc3)c3c(-c4ccc(CC)cc4)[nH]nc3n2)cc1	-0.507%
O=C(CC1(O)C(=O)N(CCc2ccccc2)c2ccc(Br)cc21)c1ccccc1O (configuration not stated)	-17%
Cc1ccccc1Nc1c2c(nc3nncn13)CCC2	-4.85%
O=C(COC(=O)/C=C/c1ccco1)NCc1ccccc1Cl	active: 32.6%
COc1ccc(NC(=O)Cc2csc(C)n2)cc1	-19.7%
CC(C)(C)C(=O)Nc1c(C(=O)N2CCN(c3ccc(F)cc3)CC2)oc2ccccc12	2.42%
COc1ccccc1CNC(=O)c1cccc(Nc2nc3ccccc3n3nnnc23)c1	-4.91%
Cc1ccc2nc(N3CCN(c4cccc(C)c4C)CC3)c3nnnn3c2c1	-18.8%
O=C(Nc1cccc(C(F)(F)F)c1)c1ccc(Cn2cc(Br)cn2)o1	active: 35.5%
Cc1nnc(SCC(=O)NCc2ccccc2F)c2nn(-c3ccc(Cl)cc3)c(C)c12	-16.2%

SMILES	inhibition
COCCc1nn2c(=O)cc(COC(=O)c3ccc(C(C)(C)C)cc3)nc2s1	-5.84%
Cc1ccc(Cn2ccc(NC(=O)c3cc(-c4ccc(Cl)c(Cl)c4)on3)n2)cc1	6.14%
COc1ccc(CNc2ncnc3c2c(-c2ccccc2)cn3-c2ccccc2)cc1	19.4%
CCN(CC)S(=O)(=O)c1ccc(C(=O)N=c2sc3cccc(OC)c3n2C)cc1	12%
Cc1ccc(S(=O)(=O)c2nc(-c3ccc(Cl)cc3)oc2N2CCCCCC2)cc1	9.52%
Cc1c(-c2cccc(NC(=O)C(C)(C)C)c2)nc2ncccn12	-7.36%
CN1CC(=O)N(CC(=O)Nc2ccc(Cl)c(C(F)(F)F)c2)c2ccccc2C1=O	7.07%
O=C(c1ccc2c(Cl)c3c(nc2c1)CCCC3)N1CCN(c2cccc(Cl)c2)CC1	16.2%
CCc1ccc(-c2ccc(C(=O)Oc3ccc(Br)cc3)cc2)nc1	17.9%
COc1ccc(NC(=O)C2=C(C)Nc3nc(SCc4ccccc4)nn3C2c2cc(OC)ccc2OC)cc1 (configuration not stated)	-3.22%
Cc1c(C)n(C)c2ccc(C(=O)NCCCN3CCCCC3)cc12	8.32%
Cc1ccc(-c2c(C(=O)NCCc3ccc(Cl)cc3)oc(=O)c3ccccc23)cc1	-10.5%
Cc1cccc(N2C(=O)CCSC23C(=O)N(Cc2ccc(F)cc2)c2ccccc23)c1 (configuration not stated)	-8.38%
CN(C)c1ccc(NC(=O)Cn2c(SCc3ccccc3F)nc3cccnc32)cc1	-0.0927%
FC(F)Oc1ccc(NC(=S)NC2CCCCCCC2)cc1	active: 33.3%
Cc1ccc(C)c(S(=O)(=O)c2nnn3c2nc(NCc2ccc4c(c2)OCO4)c2sccc23)c1	-10.7%
COc1ccc(-c2nnc(SCC(=O)Nc3ccc(F)cc3)s2)cc1	-28.3%
CN(C)c1ccc(C(CNS(=O)(=O)c2ccc(Br)cc2)N2CCOCC2)cc1 (configuration not stated)	2.98%
O=c1c2sc3ccccc3c2n(Cc2ccccc2F)c(=O)n1CCc1ccccc1	-9.69%
Cc1cc(N2CCN(C(c3ccccc3)c3ccc(Cl)cc3)CC2)n2ncnc2n1 (configuration not stated)	active: 30.7%
CCOC(=O)c1ccccc1NC(=O)Cn1c(=O)n(Cc2ccccc2)c(=O)c2c(C)c(C)sc21	2.64%
CCC(=O)Oc1ccc(-c2nc3ccccc3c(=O)o2)cc1	-4.68%
CCN(c1ccc(Cl)cc1)S(=O)(=O)c1nnc(NC(=O)C(C)C)s1	6.99%
Cc1ccc(-n2ncc(C(=O)N3CCN(Cc4ccccc4)CC3)c2C2CCN(C(=O)OC(C)(C)C)CC2)c(C)c1	2.22%
CC(C)(C)OC(=O)N1CCC(c2c(C(=O)NCc3ccco3)cnn2-c2ccc(F)cc2)CC1	-9.5%

SMILES	inhibition
O=C(Nc1ccc2c(c1)N(C1CCCC1)C(=O)c1ccccc1S2)c1ccc(F)cc1	-0.334%
CCN(CC)CCCNC(=O)c1ccc2nc(CCc3ccccc3)oc2c1	21.3%
O=S(=O)(c1cccc(Cl)c1)c1nnn2c1nc(NC1CCCCCC1)c1sccc12	-0.657%
C=CCNCCOc1c(C)cc(C)cc1Cl	active: 31.6%
Cc1ccc(S(=O)(=O)c2c(C)nn(-c3ccccc3)c2OC(=O)c2ccccc2F)cc1	12%
Cc1ccc(C)c(OCC(O)CN2CCC(Cc3ccccc3)CC2)c1 (configuration not stated)	active: 46.7%
CCN(CC)c1ccc(NC(=O)C2COc3ccc(OC)cc3C2)c(C)c1 (configuration not stated)	2.65%
CCSc1ncc(Cl)c(C(=O)N2CCN(c3ccc(OC)cc3)CC2)n1	11.9%
C=Cc1ccc(Cn2c(=O)n(-c3cccc(C)c3)c(=O)c3c2c2cc(C)ccc2n3C)cc1	2.52%
CCOc1ccc(OCC(=O)Nc2c(C(=O)Nc3ccc(C)cc3)oc3ccccc23)cc1	7.02%
CCOc1ccc(CNC(=O)c2cnc3sc(N4CCC(C)CC4)nn3c2=O)cc1OC	-0.241%
Cc1cc(C)c(C#N)c(N2CCN(Cc3ccc4c(c3)OCO4)CC2)n1	active: 97.8%
COc1cccc(-n2c(=O)c3sc4ccccc4c3n(CC(=O)Nc3cccc(Cl)c3)c2=O)c1	5.51%
Fc1ccc(CNc2nc3ccc(Cl)cc3n3nnnc23)cc1	4.27%
O=S(=O)(Nc1cccc(-c2ccc(N3CCCCC3)nn2)c1)c1ccc(Cl)s1	-3.78%
CC1(C(=O)O)CCC(C(=O)Nc2ccc(OC(F)(F)Cl)cc2)C1(C)C (configuration not stated)	active: 42.8%
CCOc1ccc(CCNC(=O)c2ccc3nc(CC)c(CC)nc3c2)cc1	-3.65%
COc1ccccc1-c1cc(C(=O)Nc2cc(Cl)ccc2O)no1	-15.8%
CC1CCN(C(=O)Cn2ncc3c4ccccc4n(Cc4ccc(Cl)cc4)c3c2=O)CC1	7.18%
COc1ccc(-c2cc(C(=O)NCc3ccccc3)c3c(-c4ccccc4)[nH]nc3n2)cc1	7.63%
COc1ccccc1N1CCN(C(=O)Cc2c(C(=O)O)c(C)cn2C)CC1	-15.3%
c1ccc(-n2ncc3c(NC4CCCCCC4)ncnc32)cc1	active: 46%
CCc1ccccc1NC(=O)C1CCCN(c2nnc(-n3c(C)ccc3C)s2)C1 (configuration not stated)	-12.7%
CC(=O)c1ccc(NC(=O)c2cc(-c3ccc(Cl)c(Cl)c3)on2)cc1	-26.7%
CCCCSCCCNC(=O)C1CCC(CNS(=O)(=O)c2ccccc2)CC1 (configuration not stated)	13.1%

SMILES	inhibition
CCn1c(CN2CCOCC2)nc2cc(NC(=O)c3cc(OC)c(OC)c(OC)c3)ccc21	13.3%
CC(=O)c1ccc(NC(=O)C2CCC(CNS(=O)(=O)c3ccc4c(c3)CCCC(=O)N4)CC2)cc1 (configuration not stated)	1.59%
CSc1nn(Cc2ccc(Br)cc2)c(N(C(C)=O)C(C)=O)c1S(=O)(=O)c1ccccc1	1.59%
CCc1cccc(NCc2ccccc2-c2nnc(-c3ccccc3Cl)o2)c1	-4.35%
Cc1ccc(-n2ncc(C#N)c2/N=C/N2CCN(C)CC2)cc1	active: 37.3%
COc1ccc(-n2c(SCc3ccccc3F)nc3c([nH]c4ccccc43)c2=O)cc1	10.2%
CCOc1ccc(NC(=O)c2ccc(F)c(S(=O)(=O)NCc3ccc4c(c3)OCO4)c2)cc1	5.99%
Cc1oc2ncn(CC(C)C)c(=O)c2c1C(=O)NCCCN(Cc1ccccc1)C(C)C	14%
CCOc1ccc(NC(=O)CSc2nnc(-c3ccc(C)cc3)c(-c3ccc(C)cc3)n2)cc1	-3.58%
O=C(NCCCc1nc2ccccc2n1Cc1ccc(Cl)cc1)c1ccco1	0.904%
O=C(Cn1cc(S(=O)(=O)Cc2ccc(F)cc2)c2ccccc21)NCc1ccccc1Cl	13.7%
Cc1ccccc1CSc1nnc2[nH]c(=O)cc(C)n12	4.6%
O=C(NC1CC(=O)N(c2ccc(Cl)cc2)C1)c1ccc(S(=O)(=O)N2CCCC2)cc1 (configuration not stated)	1.29%
O=C(Cn1c(=O)nc(-c2ccccc2)c2ccccc21)NCCCc1ccccc1	28.1%
COc1ccc(CCNC(=O)CS(=O)Cc2nc(-c3ccc(C)cc3)oc2C)c(OC)c1 (configuration not stated)	-1.99%
COc1ccc(CCNC(=O)C(=O)NCC(c2ccco2)S(=O)(=O)c2ccccc2)cc1OC (configuration not stated)	-23.8%
CCc1cccc(C)c1NC(=O)CSc1nnc(N)s1	6.4%
CCOc1ccccc1NS(=O)(=O)c1cnc(N)nc1	21.5%
Cc1ccc(C(CC(=O)Nc2cc(C)cc(C)c2)N2Cc3ccccc3C2=O)cc1 (configuration not stated)	4.96%
CCS(=O)(=O)NCC(c1ccco1)N1CCN(c2ccc(OC)cc2)CC1 (configuration not stated)	10%
O=C(c1ccco1)N1CCN(CCCCOc2cccc3ccccc23)CC1	active: 83.6%
Cc1ccccc1CN1c2ccccc2-c2nc(SCC(=O)NCCc3ccccc3)ncc2S1(=O)=O	-1.83%
